From the GPR68 mutational scans of Howard et al. (2025)
The least precise scores are not listed. Not listed are two conditions whose scores span a narrow range. Names with del lack the residues named; names with ins carry added residues between the positions named. For some of these results: The data file names ogerin without a concentration.

B1: GPR68, Q15743 (parent)
chain: MGNITADNSSMSCTIDHTIHQTLAPVVYVTVLVVGFPANCLSLYFGYLQIKARNELGVYLCNLTVADLFYICSLPFWLQYVLQHDNWSHGDLSCQVCGILLYENIYISVGFLCCISVDRYLAVAHPFRFHQFRTLKAAVGVSVVIWAKELLTSIYFLMHEEVIEDENQHRVCFEHYPIQAWQRAINYYRFLVGFLFPICLLLASYQGILRAVRRSHGTQKSRKDQIQRLVLSTVVIFLACFLPYHVLLLVRSVWEASCDFAKGVFNAYHFSLLLTSFNCVADPVLYCFVSETTHRDLARLRGACLAFLTCSRTGRAREAYPLGAPEASGKSGAQGEEPELLTKLHPAFQTPNSPGSGGFPTGRLA

Columns and labels:
[1] = variants of: B1; experiment: cAMP reporter score (Enrich2 score, wild type = 0); higher = more signal; HEK293T, FACS bins
[2] = variants of: B1; experiment: surface expression score (Enrich2 score, wild type = 0); higher = more signal; HEK293T, FACS bins

Variant	cAMP reporter score ([1]; pH 5.5)	cAMP reporter score ([1]; pH 6, modulator: ogerin)	cAMP reporter score ([1]; pH 6.5, modulator: ogerin)	cAMP reporter score ([1]; pH 6)	surface expression score [2]
S276V	0.443	-0.235	-0.221	–	–
S276W	-0.917	-1.2	-0.849	-1.11	-2.06
S276Y	-1.7	-1.62	-0.848	-0.684	-1.51
S276_F277del	-1.44	-2.18	-1.09	-1.43	-2.46
S276_F277insG	-2.32	-3.4	-0.405	0.834	–
S276_N278del	-1.32	-2.13	-1.29	-0.89	-2.29
S276del	-1.74	-1.62	-1.41	-1.2	-2.5
F277A	-0.817	-1.56	-0.95	-0.071	-0.768
F277C	-1.51	-1.15	-1.17	-1.18	-1.07
F277D	-1.41	-1.6	-0.954	-1.3	-2.41
F277E	-1.68	-1.22	-0.737	-1.44	-2.6
F277G	0.105	-0.325	-0.161	-0.052	-1.74
F277H	-1.5	-2.17	-1.24	-0.482	-2.57
F277I	0.367	0.347	0.086	0.172	0.083
F277K	-2.28	–	-1.12	-1.1	-2
F277L	0.684	0.999	0.884	1.65	1.49
F277M	0.528	0.415	-0.683	-0.348	1.17
F277N	-1.97	-0.821	-1.65	–	-1.67
F277P	-1.22	-0.824	-0.983	-0.439	-1.9
F277Q	-1.74	-1.29	-0.79	-1.07	-2.71
F277R	-1.63	-0.352	-0.557	-0.665	-2.62

Variant	cAMP reporter score ([1]; pH 5.5)	cAMP reporter score ([1]; pH 6, modulator: ogerin)	cAMP reporter score ([1]; pH 6.5, modulator: ogerin)	cAMP reporter score ([1]; pH 6)	surface expression score [2]
F277S	-0.875	-1.33	-1.38	-1.52	-2.01
F277T	-0.953	-1.33	-0.85	-0.473	-0.317
F277V	2.08	1.54	1.65	0.467	0.607
F277W	0.486	0.68	0.367	–	-1.51
F277Y	0.303	-0.615	-0.7	0.166	-1.16
F277_C279del	-1.52	-1.88	-1.53	-1.42	-2.93
F277del	-1.44	-1.86	-1.37	-0.661	-2.37
N278_C279insGS	-2.03	-0.815	-1.24	-1.09	-2.08
N278_V280del	-1.21	-1.65	-0.964	–	-2.56
C279A	0.574	0.744	2.28	3.18	0.126
C279D	-1.05	-1.37	-1.27	-1.91	-1.79
C279E	-0.95	-0.393	-0.57	-0.706	-2.2
C279F	-1.47	-1.76	-1.71	-1.41	-2.21
C279G	-1.02	-1.9	-0.865	-0.772	-1.64
C279H	0.008	-0.211	0.715	–	–
C279I	-0.158	-0.621	-0.901	-0.684	-0.723
C279K	-1.95	-0.351	-1.04	0.147	-0.735
C279L	-0.403	-1.79	-1.29	-0.797	-1.38
C279M	-0.605	-0.553	-0.758	-1.14	-1.89
C279P	1.14	0.519	-0.381	-1.01	0.188
C279Q	-0.339	-1.86	-1.1	-0.085	-2.82

Variant	cAMP reporter score ([1]; pH 5.5)	cAMP reporter score ([1]; pH 6, modulator: ogerin)	cAMP reporter score ([1]; pH 6.5, modulator: ogerin)	cAMP reporter score ([1]; pH 6)	surface expression score [2]
C279R	-0.601	-0.79	-0.608	-0.174	-0.683
C279S	0.884	0.356	0.429	0.729	-1.35
C279T	0.664	-0.469	-0.937	0.095	-0.112
C279V	0.058	0.381	-0.262	0.533	0.766
C279W	-1.51	-0.619	-0.906	–	-2.26
C279Y	-1.27	-1.97	-0.857	-0.692	-1.81
C279_A281del	-1.16	-1.69	-1.07	-1.34	-2.33
C279_V280del	-1.45	-1.59	-1.68	-0.892	-2.26
C279_V280insG	-0.828	-0.33	-0.965	-0.876	-2.47
C279_V280insGS	-1.78	-2.2	-1.08	-0.742	-2.02
V280A	0.411	-0.05	-0.506	0.067	-1.26
V280C	0.748	0.051	-0.759	-0.131	-0.036
V280D	-1.53	-1.03	-1.17	-0.774	-1.96
V280E	-1.65	-1.71	-1.6	-1.38	-1.94
V280F	-0.727	-0.222	1.38	0.269	-1.47
V280G	-1.93	-1.37	-1.28	-0.92	-1.13
V280H	-0.932	-2.15	-0.735	-0.317	-2.15
V280I	0.897	1.59	0.917	-0.139	1.9
V280K	-1.01	-1.78	-1.79	-0.632	-2.09
